Some of the results follow. At the low end of the ranking, values are background and their order means little.
What follows are sequences tested against T1, GST-Rok (full length) (UniProt O34857) (assay: protein binding microarray). Settings: Rok is a gene silencer of Bacillus subtilis; high values mean tight binding; most listed sequences are background and not binding sites; double strand, one strand shown.
T1 sequence: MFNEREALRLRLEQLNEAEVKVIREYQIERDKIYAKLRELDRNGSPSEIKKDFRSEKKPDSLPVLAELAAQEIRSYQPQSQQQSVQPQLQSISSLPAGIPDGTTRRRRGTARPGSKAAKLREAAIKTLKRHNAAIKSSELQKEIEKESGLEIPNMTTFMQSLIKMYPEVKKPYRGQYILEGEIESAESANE
With ACATATTC the binding signal was 0.27 E-score.
With AGGGAAGG the binding signal was -0.28 E-score.
ATTTTCTA showed a binding signal of 0.397 E-score.
With TCCTCTCA the binding signal was -0.197 E-score.
For AGTTGGCA, the binding signal was 0.106 E-score.
For CTCTTGCA, the binding signal was -0.0115 E-score.
CAGCCGGG showed a binding signal of -0.324 E-score.
AAGGTAAT gave a binding signal of 0.209 E-score.
AAGTCTCT showed a binding signal of -0.169 E-score.
GGTATAAA gave a binding signal of 0.383 E-score.
With AAGTAACT the binding signal was 0.225 E-score.
Sequence GACTCGAA has a binding signal of -0.164 E-score.
Sequence CTTCTCGC has a binding signal of -0.0135 E-score.
For AATTGCTA, the binding signal was 0.335 E-score.
ACTCGATA showed a binding signal of 0.157 E-score.
Work on CCTAATGC yielded a binding signal of -0.154 E-score.
GCCTCGGA gave a binding signal of -0.114 E-score.
For AATAAGTG, the binding signal was 0.0215 E-score.
Sequence CACCACAA has a binding signal of 0.174 E-score.
Sequence CGCACGCG has a binding signal of -0.257 E-score.
With AGACTCTG the binding signal was -0.185 E-score.
Work on AGAGACTA yielded a binding signal of 0.093 E-score.
In the case of AATGGCCT, the binding signal is reported as -0.0659 E-score.
GTCAACCA gave a binding signal of 0.0527 E-score.
With AGGTATCG the binding signal was 0.0878 E-score.
CCCTGGGC was tested, and the binding signal was -0.337 E-score.
Work on CCAATACA yielded a binding signal of 0.0507 E-score.
In the case of CGTTGTGC, the binding signal is reported as -0.051 E-score.
Sequence GTTGCAGA has a binding signal of -0.0465 E-score.
For GAGTAAGA, the binding signal was -0.0643 E-score.
Work on AGGGAAGA yielded a binding signal of -0.237 E-score.
With CCAACATA the binding signal was 0.178 E-score.
Sequence GAGCCACC has a binding signal of -0.278 E-score.
Sequence GTGGGCCA has a binding signal of -0.235 E-score.
CTGCGCGA showed a binding signal of -0.168 E-score.
For GCGAACTA, the binding signal was 0.272 E-score.
CGCTAATA showed a binding signal of 0.282 E-score.
Sequence CTAAGCTC has a binding signal of 0.177 E-score.
For AGAGGAAT, the binding signal was -0.0077 E-score.
For TAAGATAA, the binding signal was 0.194 E-score.
In the case of CGGGGTAA, the binding signal is reported as -0.098 E-score.
With GCTCCAAA the binding signal was -0.198 E-score.
CAACCCAA showed a binding signal of 0.103 E-score.
Sequence AATGCTGT has a binding signal of 0.207 E-score.
ATGGACGG was tested, and the binding signal was -0.197 E-score.
Work on CGAAAGGA yielded a binding signal of -0.308 E-score.
GTTCCGAA showed a binding signal of -0.0287 E-score.
With CGATCCCG the binding signal was -0.227 E-score.
CAGCTATG was tested, and the binding signal was -0.0585 E-score.
CTGGTATC gave a binding signal of 0.0753 E-score.
For GTAAATCA, the binding signal was 0.194 E-score.
GCGAAAGA gave a binding signal of -0.083 E-score.
CGTGGGAC gave a binding signal of -0.0558 E-score.
AAAGGAGT was tested, and the binding signal was -0.295 E-score.
Work on AAGAACGC yielded a binding signal of -0.105 E-score.
For AAATATAA, the binding signal was 0.253 E-score.
CCGCTCCC was tested, and the binding signal was -0.479 E-score.
In the case of GCATTGAA, the binding signal is reported as 0.159 E-score.
CGGACGAA was tested, and the binding signal was -0.029 E-score.
With CGAGCGGC the binding signal was -0.256 E-score.
Work on CACCCCCA yielded a binding signal of -0.326 E-score.
In the case of GTTCCAAA, the binding signal is reported as -0.0585 E-score.
With ATTACTGA the binding signal was 0.0954 E-score.
CATCTGGA gave a binding signal of 0.0248 E-score.
GACCAAGA was tested, and the binding signal was 0.0064 E-score.
CAATATGG showed a binding signal of 0.13 E-score.
For CTCGCAAC, the binding signal was -0.0684 E-score.
For CGTCCCGA, the binding signal was -0.0109 E-score.
ACCTGCAC was tested, and the binding signal was -0.17 E-score.
CAATCCTA gave a binding signal of 0.176 E-score.
In the case of ATTACAAA, the binding signal is reported as 0.154 E-score.
Sequence TCGACGAA has a binding signal of -0.0545 E-score.
Work on AATTGCAA yielded a binding signal of -0.0247 E-score.
ATGCATTG was tested, and the binding signal was 0.0725 E-score.
Sequence GATAGGAA has a binding signal of 0.225 E-score.
In the case of AAAAGCCC, the binding signal is reported as -0.201 E-score.
CGGAAAAC gave a binding signal of 0.0816 E-score.
GGCTGAAA gave a binding signal of -0.0118 E-score.
AATCTCGG gave a binding signal of 0.126 E-score.
Work on CGGTAGAC yielded a binding signal of -0.0961 E-score.
In the case of CTATACAC, the binding signal is reported as 0.216 E-score.
Sequence GGCCACCA has a binding signal of -0.174 E-score.
For AAGGTAGC, the binding signal was 0.133 E-score.
Work on AGCTTACC yielded a binding signal of 0.0191 E-score.
With ATCCGCGA the binding signal was 0.145 E-score.
For ACACCTCG, the binding signal was 0.0961 E-score.
With CTAATTTA the binding signal was 0.286 E-score.
In the case of TGAACCAA, the binding signal is reported as -0.12 E-score.
Sequence GGCAGTCA has a binding signal of -0.227 E-score.
With CTCCCCCC the binding signal was -0.418 E-score.
GGATGCCA gave a binding signal of -0.177 E-score.
GTTCCGTA was tested, and the binding signal was 0.198 E-score.
GGCGCTAC gave a binding signal of 0.0181 E-score.
For ACCTGGTA, the binding signal was 0.195 E-score.
AGAAAATG gave a binding signal of 0.18 E-score.
ACACACCC showed a binding signal of -0.0612 E-score.
For CCCAGTAC, the binding signal was 0.0342 E-score.
AGCTTGGC gave a binding signal of -0.211 E-score.
With AAAATCGA the binding signal was 0.175 E-score.
CACCTCCC gave a binding signal of -0.312 E-score.
Work on CAGCCGCC yielded a binding signal of -0.326 E-score.
ATCAGTGA gave a binding signal of -0.142 E-score.
Work on CGGGTGAA yielded a binding signal of -0.102 E-score.
In the case of AACAGATG, the binding signal is reported as 0.0185 E-score.
AGACTCAG gave a binding signal of -0.0707 E-score.
Work on AAACAGTG yielded a binding signal of 0.000896 E-score.
For GGGAATAA, the binding signal was -0.0556 E-score.
ATTGTACG showed a binding signal of 0.266 E-score.
Sequence CGATAGCA has a binding signal of 0.0701 E-score.
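Note: rank score from −0.5 (least bound) to 0.5 (best bound).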
